Results taken from paper PMC4336329 (PLoS ONE, 2015).
About 14,000 (4.5%) of roughly 310,000 compounds showed an effect of 50% or more. The effect is printed as a negative number. This is one part of the list.

Molecular target: human ether-à-go-go-related gene (hERG) potassium channel (human, UniProt Q12809)
Assay: primary screen, population patch clamp on CHO cells stably expressing hERG
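Note: peak tail current of the secondary pulse compared with the same well before compound.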

Chain of human ether-à-go-go-related gene (hERG) potassium channel (Q12809 whole entry, looked up): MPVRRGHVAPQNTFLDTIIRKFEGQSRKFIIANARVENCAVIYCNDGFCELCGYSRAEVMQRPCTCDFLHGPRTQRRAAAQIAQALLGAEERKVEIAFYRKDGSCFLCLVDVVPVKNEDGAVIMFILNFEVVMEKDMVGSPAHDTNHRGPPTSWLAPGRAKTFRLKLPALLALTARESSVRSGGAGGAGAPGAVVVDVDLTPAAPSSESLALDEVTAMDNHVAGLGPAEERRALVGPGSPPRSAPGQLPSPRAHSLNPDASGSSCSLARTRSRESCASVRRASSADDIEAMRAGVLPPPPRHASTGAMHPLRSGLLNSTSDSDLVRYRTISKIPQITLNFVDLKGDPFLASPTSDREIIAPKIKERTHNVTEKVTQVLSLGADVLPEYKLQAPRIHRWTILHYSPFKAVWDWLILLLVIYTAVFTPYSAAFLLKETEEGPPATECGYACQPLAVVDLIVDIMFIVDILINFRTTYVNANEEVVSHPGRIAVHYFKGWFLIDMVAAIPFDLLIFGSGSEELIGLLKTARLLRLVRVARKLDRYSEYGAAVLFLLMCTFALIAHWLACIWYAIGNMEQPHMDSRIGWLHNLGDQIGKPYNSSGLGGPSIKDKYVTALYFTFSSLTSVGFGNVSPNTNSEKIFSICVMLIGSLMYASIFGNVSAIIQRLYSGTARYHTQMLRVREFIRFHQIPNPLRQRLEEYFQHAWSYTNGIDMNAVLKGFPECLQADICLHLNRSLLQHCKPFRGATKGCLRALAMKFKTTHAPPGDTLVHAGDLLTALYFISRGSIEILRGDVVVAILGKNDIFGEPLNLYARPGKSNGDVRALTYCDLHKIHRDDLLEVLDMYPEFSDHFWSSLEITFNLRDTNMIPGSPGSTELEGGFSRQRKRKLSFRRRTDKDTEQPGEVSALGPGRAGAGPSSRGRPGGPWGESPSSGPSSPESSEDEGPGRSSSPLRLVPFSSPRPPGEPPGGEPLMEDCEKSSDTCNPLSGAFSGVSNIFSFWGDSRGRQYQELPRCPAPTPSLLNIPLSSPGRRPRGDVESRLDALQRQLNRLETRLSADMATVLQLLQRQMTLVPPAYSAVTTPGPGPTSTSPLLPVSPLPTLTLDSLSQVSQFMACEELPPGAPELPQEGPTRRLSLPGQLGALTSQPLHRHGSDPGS

Structure (SMILES)	hERG current change (%, negative = inhibition) at 10uM
O=C(/C=C1\SC(=O)NC1=O)Nc1ccc(F)cc1	3.18%
CS(=O)(=O)N(CC(=O)N1CCN(c2ccccc2)CC1)c1ccc(Cl)c(C(F)(F)F)c1	-2.43%
COc1ccc(C2=NN(C(=O)CN3CCCCC3)C(c3ccc(OC)cc3)C2)cc1 (stereo not drawn)	-40.1%
CN(C)CC(C)(C)CNC(=O)CC1C(=O)NCCN1Cc1ccc(-c2ccccc2)cc1 (stereo not drawn)	2.56%
COc1ccc(C(=O)COC(=O)CCNS(=O)(=O)c2ccc(NC(C)=O)cc2)c(OC)c1	-30.5%
COCc1cc(=O)[nH]c2cc(NC(=O)C(F)(F)F)c(C)cc12	-5.35%
CC(C)NC(=O)NC(=O)CSc1ccc(S(=O)(=O)N2CCCC2)cn1	-10.8%
CCOC(=O)CSC1=Nc2ccccc2C2=NC(CC(=O)NCc3cccs3)C(=O)N12 (stereo not drawn)	-22.8%
Nc1c(C(=O)Nc2ccccc2)sc2nc(-c3cccnc3)ccc12	-3.23%
CCOC(=O)c1c(-c2ccccc2)csc1NC(=S)NC(=O)c1ccccc1	21%
COc1ccccc1NC(=O)CC1CCCC1	15.4%
COc1ccc(N(C(=O)c2ccccc2OC(C)=O)C(C)C2CC2)cc1 (stereo not drawn)	2.38%
CCCNC(=O)Cn1c(-c2ccc(F)cc2)cc(C(=O)OCC)c1C	5.8%
O=C(CCc1ccccc1)NC(NC(=S)Nc1ccc(Cl)cc1)C(Cl)(Cl)Cl (stereo not drawn)	8.38%
CCCC(=O)Nc1cccc(Oc2nc(C)cc(C)c2C#N)c1	6.51%
CN(C)CC(C)(C)CNC(=O)c1cc(Br)cc(Br)c1O	-5.01%
CC(C)C[C@@H](CO)N1CCN(CC(C)C)CCC1=O	4.64%
CCOC(=O)COc1nc(C)c(Br)c(OC)n1	5.01%
CCn1c(=NC(=O)C2COc3ccccc3O2)sc2c(OC)ccc(OC)c21 (stereo not drawn)	8.6%
Cn1c(=O)[nH]c(=O)c2c1nc(NN)n2CCOc1ccccc1	19.5%
O=C(Nc1ccccc1F)c1ccc2ncsc2c1	3.92%
CC(NC(=S)NCCc1ccccc1)C(c1cccs1)N1CCN(C)CC1 (stereo not drawn)	-35.7%

Structure (SMILES)	hERG current change (%, negative = inhibition) at 10uM
CCOC(=O)[C@@H]1[C@H]2COc3ccc(Br)cc3[C@@H]2N2C(=O)N(c3ccc(OC)cc3)C(=O)[C@]12C	10%
C=CCn1c(=O)c2ccccc2n2c(SCC(=O)/C(C#N)=C(\C)N)nnc12	-2.26%
CN(CC(=O)NCCc1ccccc1)S(=O)(=O)c1ccc(Br)cc1	-17.8%
Nc1nc(N)c(C=Nc2ccc(Br)cc2)c(Nc2ccc(Br)cc2)n1	24.2%
CCOc1ccc(S(=O)(=O)NCc2ccccn2)cc1NC(=O)c1ccccc1	-17.1%
COC(=O)CS(=O)(=O)c1cc(Br)cc2c1N(C(C)=O)CC2	5.36%
CCC(=O)Nc1ccc(C(=O)CSc2nc3ccc(C)cc3[nH]2)cc1	6.93%
O=C(NC1(C(F)(F)F)NC(=O)N(c2ccccc2F)C1=O)c1ccncc1 (stereo not drawn)	4.71%
Cc1nc(C(=O)Nc2ccccc2)sc1C1(C)CC(c2cccc([N+](=O)[O-])c2)=NO1 (stereo not drawn)	8.12%
O=C(NC1CCN(C(=S)NCc2ccco2)CC1)c1ccc(F)cc1	-51.6%
CCN(CC(=O)Nc1ccc(NC(C)=O)cc1)C(=O)Cc1c(Cl)cccc1Cl	13.5%
COc1ccc(N=c2oc3c(OC)cccc3cc2C(=O)NCc2ccco2)cc1OC	-9.99%
O=C1C=C(N2CCOCC2)c2ccccc2C1=O	-1.23%
COc1ccc2c(c1)c1nnc(SCC(=O)Nc3ccccc3F)nc1n2C	3.96%
CC(CCc1ccccc1)NC(=O)c1cccc([N+](=O)[O-])c1 (stereo not drawn)	-8.01%
COc1ccc(C2/C(=C(/O)c3ccccc3)C(=O)C(=O)N2c2ccccn2)cc1 (stereo not drawn)	20.2%
COc1ccc(Br)cc1CN1CCCCCCC1	-39.9%
C/C(CC(=O)NCCc1ccccc1)=N\NC(=O)COc1ccc(Br)cc1	-21.3%
Cn1nnc2cc(NC(=O)N3CCN(c4ccccn4)CC3)ccc21	0.203%
CCc1noc(C)c1C(=O)Nc1nc(-c2ccccc2)c(C(C)=O)s1	-32.1%
Cc1ccc(/C=C/C(=O)O)cc1S(=O)(=O)N1CCCc2ccccc21	12.2%
CCOC(=O)c1cnc2c(cnn2C)c1NCCCN(C)C	-51.7%

Structure (SMILES)	hERG current change (%, negative = inhibition) at 10uM
CCN(CC)C(=O)CSc1nnc(C2CCCCC2)o1	5.14%
COc1cccc(C(=O)N2CCC(CCC(=O)Nc3cccc(C)c3)CC2)c1	-28.6%
O=C(O)c1c(-c2ccccc2)oc2ccc(O)cc12	14.6%
CCOc1ccccc1N1CCN(CC(=O)NCCc2ccc(S(N)(=O)=O)cc2)CC1	12.2%
CSc1nc2c(c(=O)n1-c1ccc(C)cc1)SCC2	12.5%
COc1ccc(NC(=O)CSc2nccn2C)cc1S(N)(=O)=O	10.3%
C=CCn1c(C)cc(C(=O)COc2nncc3ccccc23)c1C	9.33%
Cc1ccc(OCC(O)CNC2CCCC2)c(C)c1.Cl (stereo not drawn)	7.48%
C1=CC(Cc2cncs2)c2ccccc21 (stereo not drawn)	0.216%
O=C(CSc1nnc(-c2ccccc2)n1Cc1ccco1)Nc1ccc(S(=O)(=O)N2CCCC2)cc1	-35.3%
CCN(CC)c1nc(-c2cccc(OC)c2O)nc2ccccc12	4.29%
CCCSc1ccc([C@@H]2[C@H]3C(=O)N(CC)C(=O)[C@H]3[C@]3(C(=O)OC)CCCCN23)cc1OC.O=C(O)C(F)(F)F	1.84%
CCN(CC)C(=O)c1ccccc1NC(=O)CN1C(=O)c2ccccc2S1(=O)=O	8.92%
CC(C)N1CCN(Cc2ccsc2)CC1CCO (stereo not drawn)	-4.25%
CCOC(=O)c1c(NC(=O)COC)sc(C(C)=O)c1C	11.4%
CCCNC(=O)N(CCOC)CC1CCCN(C2Cc3ccccc3C2)C1 (stereo not drawn)	-47.8%
Clc1ccc(CN2CCCCCCC2)cc1Cl	3.83%
COCC(C)OC(=O)c1c(N)n(Cc2ccco2)c2nc3ccccc3nc12 (stereo not drawn)	-55.7%
Cc1cc(C)n2nc(SC3CCCCN(C(=O)c4ccc(F)cc4)C3=O)nc2n1 (stereo not drawn)	-21%
COc1ccc(/C=C/CN2CCC(n3nccc3NC(=O)C3CC3)CC2)cc1	-72.7%
CCC(=O)Nc1ccc(C(=O)Nc2cc(C)on2)cc1	-9.54%
O=C(NCc1nc2ccccc2[nH]1)C1=C[C@H](c2ccc(Br)cc2)C[C@H](OCc2ccc(CO)cc2)O1	3.89%

Structure (SMILES)	hERG current change (%, negative = inhibition) at 10uM
O=C(c1ccc(F)cc1)N1CCN(c2cnn(-c3ccccc3)c(=O)c2Cl)CC1	-48.6%
O=C(CN1C(=O)c2cccc3cccc1c23)Nc1ccccc1	20.2%
COc1ccc(N(CC(=O)Nc2cccc(N(C)S(C)(=O)=O)c2)S(=O)(=O)c2ccc(F)cc2)cc1	-10.5%
COc1ccc(-c2cc(Nc3ccccc3NC(=O)C(F)(F)F)n(CCC#N)n2)cc1	-14.7%
Cc1nnc(SCC(=O)NC(C)(C)C)n1CCc1ccccc1	-9.81%
Clc1ccc(Cn2cccn2)cn1	24.8%
Cc1noc(C)c1COC(=O)CCCNC(=O)c1ccc(Cl)cc1	-8.57%
CCN(CC(=O)Nc1c(F)cccc1F)C(=O)c1ccc2ccccc2n1	-19.6%
COc1ccccc1NC(=O)Cn1c(C)cc(=O)c2cccc(OC)c21	-33.3%
O=C(c1ccc(Cl)c([N+](=O)[O-])c1)N1CCCc2ccccc21	-10.9%
CN(CC(=O)Nc1cccc(F)c1)C(=O)c1ccc(OCC2CCCO2)cc1 (stereo not drawn)	4.44%
COc1ccc(C(CNC(=O)c2cccc(NS(=O)(=O)c3ccc(C)c(F)c3)c2)N2CCOCC2)cc1 (stereo not drawn)	-9.43%
CN(C)C(CNC(=O)CCCOc1ccccc1)c1ccco1 (stereo not drawn)	-6.68%
Cc1nn(C)c(C(=O)NNC(=S)NC2CCCCC2)c1Cl	10.4%
CC1(C)CSC(=NCCc2ccccc2)N1C(=O)c1ccc(C#N)cc1	-18.8%
COc1ccc(-c2csc3ncnc(N4CCN(c5cccc(OC)c5)CC4)c23)cc1	5.39%
COC(=O)[C@@H](NC(=O)/C=C/c1ccc(OC)cc1)C(C)C	10.3%
CCOc1ccc2[nH]c(O)c(NC(C)=O)c2c1	-5.02%
COc1ccc(S(=O)(=O)N2CCCC2C(=O)NCC(=O)Nc2cccc(Cl)c2C)cc1 (stereo not drawn)	-22.6%
CCCN1C(=O)C(Cc2nc3ccccc3c(=O)n2-c2ccccc2)c2ccccc21 (stereo not drawn)	-9.57%
C=CCn1c(COc2ccc(Cl)cc2)nnc1SCC(=O)Nc1ccc(S(N)(=O)=O)cc1	-9.02%
